# Measured values published in PubChem BioAssay AID1457 (National Center for Advancing Translational Sciences (NCATS), 2008).
# In all, about 210,000 compounds went through this assay and about 730 (0.35%) were called active. Inconclusive results, whose numbers are uncertain, are shown with a selection of clear calls. Calls follow the shape of the dose curve; as a rule, active = well fitted inhibition curve with a large enough effect; inconclusive = small, poorly fitted or top-dose-only effect; inactive = no such curve, though single readings can be large or run the other way. Potencies of inconclusive entries are doubtful fits and often do not repeat.
# Experiment: qHTS Assay for Identifying the Cell-Membrane Permeable IMPase Inhibitors: Potentiation with Lithium; also: nearly all actives have a fitted effect of over 50% in size;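 as to activity, negative = IMPase inhibition: plate controls were basal vehicle for no effect and high inhibitor control for full effect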
# Conditions: CHO-M1 cells, IP1 TR-FRET (IP-One), carbachol + lithium; series mostly up to 59.4 µM; activity, negative = IMPase inhibition: at the top concentration
# Outline: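 CHO cells stably expressing M1 receptor (2000/well, cultured 16–30 h) treated 30 min at 37C with compound plus low lithium. Cytosolic IP1 by TR-FRET (665/620 ratio and 620 channel) after 10 min lysis; AC50 by Hill fit.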
# Potency is read from the fitted curve at half-maximal effect.
SMILES,"activity, negative = IMPase inhibition",Potency
Fc1cccc(F)c1C(Nc1nncs1)Nc1nncs1,inactive: 8.58%,–
CC(C)c1ccc(NC(=O)CSc2nc(-c3ccccc3F)nc3nc[nH]c23)cc1,–,"inconclusive: 28.2 µM [inhibitor, single point]"
CC1(C)Cc2c(ccc3ccccc23)C2=C(C(=O)N3CCCC3)C(=O)C(=O)N21,–,"inconclusive: 7.08 µM [inhibitor, partial curve]"
CC(=O)c1ccc2c3c(cccc13)C(=O)N(CCc1ccccc1)C2=O,inactive: 13.3%,–
O=S1(=O)C=C(Sc2nnc(-c3ccccc3)o2)c2ccccc21,–,"inconclusive: 10 µM [inhibitor, partial curve]"
CCSc1nnc(NC(=O)CCc2ccc(OC)cc2)s1,–,"inconclusive: 28.2 µM [inhibitor, single point]"
CCCNC(=O)c1ccc2snnc2c1,inactive: 0.289%,–
COc1cc(C2NC(=S)NC3=C2CCc2ccccc23)cc(OC)c1OC (configuration not stated),inactive: -1.34%,–
CSc1ccc(-c2nc(CSCC(=O)N3CCOCC3)c(C)o2)cc1,inactive: -10.8% [at 38.3 µM],–
COc1ccccc1C(=O)NCCc1c(C)[nH]c2c(C)ccc(F)c12,–,"inconclusive: 6.31 µM [inhibitor, full curve, poor fit]"
COc1ccc(CNC(=O)C23CN(Cc4ccccc4)CC2C(c2ccc([N+](=O)[O-])cc2)=NO3)cc1 (configuration not stated),inactive: 17.2% [at 38.3 µM],–
CCC(=O)Nc1ccc(C(=O)CSc2nnc(-c3ccc(O)cc3)n2CC2CCCO2)cc1 (configuration not stated),inactive: 12.6% [at 38.3 µM],–
CCC(=O)NC(=S)Nc1ccc(-c2nc3ccccc3s2)cc1,–,active: 11.2 µM
CSc1nnc2c3ccccc3n(Cc3ccccc3)c2n1,–,"inconclusive: 10 µM [inhibitor, single point]"
O=C(COC(=O)C1(c2ccccc2F)CCCC1)NCc1cccs1,inactive: 13.8%,–
Cc1nc(-c2ccccn2)sc1C(=O)Nc1ccc(Cl)c(Cl)c1,–,"inconclusive: 28.2 µM [inhibitor, single point]"
COCCN1C(=O)C(=O)/C(=C(/O)c2ccc(OC(C)C)cc2)C1c1cccnc1 (configuration not stated),–,active: 10 µM
O=C(OCn1ncc(Br)c(Br)c1=O)c1ccccc1Cl,–,"inconclusive: 11.2 µM [inhibitor, single point]"
O=C(CN1CCCN(S(=O)(=O)c2ccc(Br)s2)CC1)Nc1ccc(Cl)cc1,inactive: 65.8% [at 38.3 µM],–
O=C(NCc1ccco1)C(=O)NCC1OCCCN1S(=O)(=O)c1ccc(F)cc1 (configuration not stated),inactive: 3.48%,–
COc1ccc(-c2nsc3c(SCC(=O)Nc4cc(C)ccc4C)ncnc23)cc1,–,"inconclusive: 7.08 µM [inhibitor, partial curve]"
CCOC(=O)c1[nH]c2ccc(OC)cc2c1NC(=S)N1CCN(c2cccc(Cl)c2)CC1,–,"inconclusive: 28.2 µM [inhibitor, single point]"
O=C(Nc1nccs1)c1ccc(COc2ccc(F)cc2)o1,–,"inconclusive: 31.6 µM [inhibitor, partial curve, poor fit]"
Cc1nnc(NC(=O)CSc2ccc3nnc(-c4cccnc4)n3n2)s1,inactive: 2.05%,–

SMILES,"activity, negative = IMPase inhibition",Potency
O=C(Nc1cccc(Br)c1)c1ccc(Cl)c(S(=O)(=O)N2CCOCC2)c1,–,"inconclusive: 28.2 µM [inhibitor, single point]"
CC1CCC2(CC1)NC(=O)N(CC(=O)Nc1nc(-c3ccc(F)cc3)cs1)C2=O (configuration not stated),–,active: 14.1 µM
COc1ccc(CCNC2=C(Cl)C(=O)N(CCc3ccc(OC)c(OC)c3)C2=O)cc1OC,inactive: 28.1% [at 38.3 µM],–
CCCOc1ccc(C(=O)Nc2nc(C)c(Cc3ccc4c(c3)OCO4)s2)cc1,–,active: 10 µM
CCOC(=O)c1c(C)n(O)c2ccc(Cl)cc2c1=O,–,"inconclusive: 7.08 µM [inhibitor, partial curve]"
CN(C)/C=N/c1ncc(C(=O)c2ccc3ccccc3c2)s1,–,"inconclusive: 28.2 µM [inhibitor, single point]"
Cn1c(=O)c2c(ncn2CC(=O)OCC(=O)Nc2cc(Cl)ccc2Cl)n(C)c1=O,inactive: 2.31%,–
CC(C)Nc1nc(-c2ccncc2)nc(-c2ccc(Cl)cc2)c1C#N,–,"inconclusive: 28.2 µM [inhibitor, single point]"
COc1ccc2c(CC(=O)NCC3CCC(C(=O)O)CC3)cc(=O)oc2c1 (configuration not stated),–,"inconclusive: 11.2 µM [inhibitor, single point]"
Cc1ccccc1-c1nc(SCc2ccccn2)c2c(=O)n(C)c(=O)n(C)c2n1,–,"inconclusive: 22.4 µM [inhibitor, single point]"
c1ccc(-c2nc3nonc3c3nc4ccccc4n23)cc1,–,"inconclusive: 22.4 µM [inhibitor, single point]"
Nc1ccc(C(=O)Nc2ccc3nc(-c4cccnc4)[nH]c3c2)cc1,inactive: 3.57% [at 38.3 µM],–
O=C(CSc1nc2ccccc2o1)Nc1nc2ccccc2s1,–,"inconclusive: 28.2 µM [inhibitor, single point]"
N#C[C@H]1[C@H](c2ccccc2)[C@](C#N)(C(=O)c2ccccc2)[C@@H]2C=Cc3ccccc3N21,inactive: 15.3% [at 38.3 µM],–
Cc1ccc(-c2noc(CCC(=O)Nc3ccc(C)cn3)n2)cc1,–,"inconclusive: 15.8 µM [inhibitor, single point]"
Nc1cccc(-c2nc3ccc(N)cc3s2)c1,–,"inconclusive: 12.6 µM [inhibitor, partial curve]"
CC(C)c1nc(SCC(=O)N2CCCC2)c2ccccc2n1,inactive: -18.3% [at 38.3 µM],–
CC(C)c1ccc2c([Si](C)(C)C)c3c(nc2c1)-c1cccc(=O)n1C3,–,"inconclusive: 28.2 µM [inhibitor, single point]"
COCCn1c(=NC(=O)c2nc3ccccc3s2)sc2cc(S(C)(=O)=O)ccc21,–,active: 22.4 µM
CCN(CC(=O)NCc1cccs1)c1ccc(S(=O)(=O)N2CCOCC2)cn1,inactive: -8.56% [at 38.3 µM],–
CNC(=S)NNC(=O)c1ccccc1F,inactive: -11.8%,–
CCCCOc1ccc(-c2c(C(=O)Nc3ccccc3)c(C)[nH]c(=S)c2C#N)cc1,–,active: 8.91 µM
O=C(Nc1ccc(-c2noc(-c3ccccc3F)n2)cc1)c1cccs1,–,"inconclusive: 28.2 µM [inhibitor, single point]"
O=C(NC(=S)Nc1cnc2ccccc2c1)c1ccccc1,–,"inconclusive: 22.4 µM [inhibitor, single point]"

SMILES,"activity, negative = IMPase inhibition",Potency
Cc1ccc2nc(-c3ccc(NC(=S)NC(=O)C(C)C)cc3)sc2c1,–,"inconclusive: 20 µM [inhibitor, single point]"
CC1Cc2cc(/C(O)=C3\C(=O)C(=O)N(CCN(C)C)C3c3ccccc3F)ccc2O1 (configuration not stated),–,"inconclusive: 11.2 µM [inhibitor, single point]"
O=C(CCN1C(=O)c2cccc3cccc(c23)C1=O)N1CCN(c2ccccc2F)CC1,–,"inconclusive: 2.82 µM [inhibitor, single point]"
CCn1c(SCC(=O)N2CCCCC2)nc(O)cc1=O,inactive: -1.93% [at 38.3 µM],–
CC1Cc2ccccc2N1C(=O)CN1CCC(C(N)=O)CC1 (configuration not stated),–,"inconclusive: 5.62 µM [inhibitor, partial curve]"
CCn1c(COc2ccc(=O)n(-c3ccccc3)n2)nnc1SCc1ccc(C)cc1,–,"inconclusive: 28.2 µM [inhibitor, single point]"
Cn1ncc(Cl)c1C(=O)Nc1ccc(Cl)cn1,–,"inconclusive: 28.2 µM [inhibitor, single point]"
Cn1c(NC(=O)c2ccc(Cl)cc2)c(-c2ccccn2)c(=O)c2ccccc21,–,"inconclusive: 14.1 µM [inhibitor, single point]"
CCN(CC)c1ccc(NC(=S)NC(=O)c2ccco2)cc1,inactive: 9.78%,–
CCOC(=O)c1c(-c2ccc(C)s2)csc1NC(=O)c1ccco1,–,"inconclusive: 28.2 µM [inhibitor, single point]"
CCN1C(=O)/C(=C/c2cn(C)nc2C)SC1=S,inactive: 30.9% [at 38.3 µM],–
Cc1cc(C)nc(NNC(=O)NC2CCCCC2)n1,–,"inconclusive: 3.55 µM [inhibitor, single point]"
COc1cccc2cc(C(=O)N3CCC(C)CC3)c(=O)oc12,–,"inconclusive: 12.6 µM [inhibitor, single point]"
CC(C)(C)C(=O)Nc1sc2c(c1-c1nc3ccccc3[nH]1)CCCC2,–,"inconclusive: 22.4 µM [inhibitor, single point]"
Cc1ccc(OCC(=O)NNC(=O)C(C)Sc2ncnc3sc(C)c(C)c23)cc1 (configuration not stated),–,"inconclusive: 17.8 µM [inhibitor, single point]"
CCOC(=O)Cn1nnc(-c2cc(OC)c(OC)c(OC)c2)n1,–,"inconclusive: 3.16 µM [inhibitor, full curve, poor fit]"
COc1ccc2c(Cl)c(C(N)=O)sc2c1,–,"inconclusive: 11.2 µM [inhibitor, partial curve]"
Cc1cc(C)c(C#N)c(Nc2ccccc2Cl)n1,–,"inconclusive: 28.2 µM [inhibitor, single point]"
Cc1ccc(NC(=O)CCSc2nnc3ccccn23)cc1,–,"inconclusive: 12.6 µM [inhibitor, partial curve, poor fit]"
COC(=O)c1ccc2ccn(CC(=O)NC3CCCCC3)c2c1,–,"inconclusive: 28.2 µM [inhibitor, single point]"
C=C(C)CN1CCN(c2ccc(N3C(=O)CCCC3=O)cc2[N+](=O)[O-])CC1,–,"inconclusive: 5.01 µM [inhibitor, single point]"
COc1ccc(/C=C/C(=O)N2c3ccccc3Sc3ccc(C(F)(F)F)cc32)cc1,–,"inconclusive: 31.6 µM [inhibitor, single point]"
COc1cccc(NC(=O)CSc2ccc3nnc(-c4ccncc4)n3n2)c1,–,"inconclusive: 28.2 µM [inhibitor, single point]"
COc1ccc(OCCSc2nc(C)nc3ccccc23)cc1,–,"inconclusive: 5.01 µM [inhibitor, single point]"
